± gives the standard deviation of the averaged measurements. In all, about 4,000 sequences were measured (“arbitrary fluorescence units”: median about 830, highest 2% from about 6,500 on). The list lacks most of the strong results.
target: RUNX1 (UniProt Q01196); experiment: RUNX1 binding intensity (PBM fluorescence), RUNX1 alone (arbitrary fluorescence units); higher = stronger binding; conditions: RUNX1 concentration 2 nM; ETS1 concentration 0 nM
Protocol: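 gcPBM on 36-bp genomic-derived probes (partner site mutated) containing one RUNX1 site and no ETS1 site. Recombinant human RUNX1 (2 nM) was incubated alone or with ETS1 (25 nM) and detected by anti-RUNX1 antibody fluorescence. Values are medians over 4 replicate spots (not normalised). The probes sit in constant array flanks that are not printed.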
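Note: Full-length recombinant human RUNX1 bound to double-stranded DNA microarray spots, detected with an Alexa488-labelled secondary antibody after the anti-RUNX1 primary, read as scanned spot fluorescence.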

Chain of UniProt Q01196 (Q01196 whole entry): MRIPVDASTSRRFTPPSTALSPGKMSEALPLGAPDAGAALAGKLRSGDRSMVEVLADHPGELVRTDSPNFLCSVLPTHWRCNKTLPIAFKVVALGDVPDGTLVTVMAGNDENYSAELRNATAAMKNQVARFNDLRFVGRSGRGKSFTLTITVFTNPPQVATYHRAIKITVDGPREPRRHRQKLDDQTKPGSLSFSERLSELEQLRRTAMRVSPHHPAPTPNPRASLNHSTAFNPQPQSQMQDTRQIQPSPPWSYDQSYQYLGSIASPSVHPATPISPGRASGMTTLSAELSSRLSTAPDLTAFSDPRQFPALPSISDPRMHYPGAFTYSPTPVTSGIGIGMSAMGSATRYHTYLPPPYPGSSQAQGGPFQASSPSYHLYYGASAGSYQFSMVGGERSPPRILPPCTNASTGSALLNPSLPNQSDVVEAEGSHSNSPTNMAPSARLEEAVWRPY

| Sequence | RUNX1 binding intensity |
| --- | --- |
| GCCTTTGGAAACCACAGCTTCCACTTTCGCTGAGGG | 1820 |
| TCTGTGGGTTTACCTGTTCTGGATATTGCCTGTAAA | 969 |
| TGAGGGCATAGAAAGTGATGGCCGCAAGGGGATGCC | 723 |
| GGAGGAAGGCAGCAAAGAAAGAGGTGGTTTCGGCAC | 783 |
| AGCCGCGCCGCAGCCGCTCAGTGCACCCGGGGCCCC | 814 |
| ACCTCTCTCACCTCCTACCAGAGAACCACAGCCAAG | 1480 |
| GGCCCCTGCTTACGGGTGTGACGCGAACCGCGGGCA | 717 |
| CTATTGTGGTATTAAAAAGAGAGGCTGGGGGGAGTG | 1290 |
| ACAATAGGAGGCTTCTCTGTGATTTTGAGCCACAAA | 830 |
| CGAAGTGCGCGGGTTGGAGCGGGAGCGCACGCCTGC | 693 |
| TCAGCGGCCGCAGAAAGCCCACGACCAGCCGAACGC | 888 |
| TAAGGGAGCTGAGGGGAGGGTGTTATGACCACATCA | 681 |
| GGGTTGCCATGATGACTCCGCGGTACCCCGCCCCGC | 816 |
| ACAGCATTTGCTGGTGGCCAGATATCTGAGGTTTCA | 683 |
| CATCCAGGACGGAGACAGCATCCCCACCGCGGGAGC | 759 |
| CACGCTTGCTACCACAAAAAGGAGATGCATCTGCAG | 919 |
| GGGCAATGTGGTTTGCCAGACGTTAGCGTACGGGAG | 1110 |
| CGAACCCGGGCTCCGCCCGCGCCGCAGACGCTCCTA | 847 |
| TGGAAGAGCCCCACCACATGTGCTTGCTGCGTGCTG | 611 |
| TCGGTGAAGGACGCAAGATGATAGCCACATTTCTTC | 815 |
| GGTGAAGGCTGCGGGGCGTCGCCGGGAGTGTCGTAA | 715 |
| TACGCTGTGGGCGGAGGCGGGCAGCAAATTCACTTA | 703 |
| CCCTCCGGCCCGCAGCCCTGCCCAAACGGAGGTGCA | 864 |
| TGCAGACTGCGGCGGCGGTGGTCTGAGGACGTTCTA | 728 |
| AGGTACCACACCAGACGGTAGGCCAGCAAATCGCAG | 702 |

| Sequence | RUNX1 binding intensity |
| --- | --- |
| GTTCGAAAACCGCCCGGGCGCCTGTGGGACATGTAG | 848 |
| TTTGTGGCTCAAAATCACAGAGAAGCCTCCTATTGT | 761 |
| CCTCCCACCGCTCGCCTTCTTGCCGTAAGCTAAGTT | 1290 |
| AATCCTGACCTCAAAAACCTCTGAATGTCTCCTTGT | 1250 |
| GGTGGAGGCGGTTGGCAGGGACGAAGGAGGGTGCCG | 836 |
| ACGGTTCTGACTGTGGTGATTAGGAATCAGGGCCGC | 786 ± 15 |
| GGTTGCCCCCCTCCTCTCTGTGGCACACACAGACCT | 928 |
| GCAGAAGGCAGTGTGGCTTGGCGCGGTGGCTCACAC | 699 |
| GTGTGGTAGGGCTAAGTTTCTCCCCAGAAAACCCCA | 828 |
| TTGGTGGCTCCCTGCCCAGGAGACCACACCCAGCTT | 933 |
| AACGTCCTCCGCGCGGGGCCACTGCTACCACAAAGG | 926 |
| ACTCTATTTAAGCCCGCAGCAGGGATCTGATCAGCC | 825 |
| GAGGGGAGGTGGTTTCACAGCTTGCTCCCTACCCAC | 674 |
| ACCATAGCCTGAGAATGAACCATGTGGTGGATGCAC | 791 |
| GAGGCTGTGGTCACATGGGGGGGGAGACAATAGCCC | 868 |
| GCCCCTCTTTCTGACTCACACAACCGCCTCTAGTCT | 1540 |
| ACTTGGCAGTTTCGGGTCCGCGCCCCACCGCGCCAC | 871 |
| TACATGCCGACCCACCGCAGGAGGAACTACTCACCC | 963 |
| CCGCCCACTGCCGTGTGGCCGCCGATTGGTTTTGCC | 892 |
| CTTCTTGCTGCTGAGACTGATACAGCCCGCAAAGCT | 816 |
| CCCACCCGGCCCACAAAAAGCGGCACACCGAGCTCG | 978 |
| AGGCTCCGCCGCAGTGCCAGCTGGAACTTGGGGTTC | 707 |
| TGGCACCCCCTGCGGCAGTCCCGGCTCCGAGCAACC | 836 |
| TAGTCCAGATACCGCGGGGCACGTCGGAGGCTGATA | 690 |
| CTGGGGACCTGTGGTTTGCTGGCGGCAACAAGTGAT | 1340 |

| Sequence | RUNX1 binding intensity |
| --- | --- |
| AATCATCAGGGAATTGCAAATCAAAACCACAATCAG | 1320 |
| AAACCCACACGGTCCTCCTTAAGGAGCTCCCGGGGC | 753 |
| GCTGACCGCGGAGGTCCTGTGGAGCTTGCTCTTCGG | 1080 |
| GCATCTGGGGGACGTTACACAACCACAGCTGTGCAG | 787 |
| CAGAGTGGTTTGATGGTTTTGTGTTAGTCTTCATGC | 923 |
| TATGGGGCCTGAAGCCATTCACCACAAACACTGTGT | 793 |
| ACAGGCTGCTGTGGTTGACCAAGCTCCCTTTGCTGG | 819 |
| TGAGAGGCAGTGGTTTCTCTGGCCAGGCAATTGAGG | 715 |
| CAGCTAGCCTGAAGAAGCTGCGGCGACAGCGTCCTG | 730 |
| TATCAGGCAAAGCGTCTCAGTCCTCCTTGTGGGCGG | 725 |
| AATACCCTGTGGTGGCCGCCGAAAGTGTCGCGGCGG | 774 |
| TCTGCTTCGCCGTACCGCACCCGGAATTCGGAGCTG | 861 |
| GAAATGAAGGCCGGGTGTCAGTAACCACAAACGAGC | 1010 |
| GACGTAAGCCGAGAGGCTCCCGTAAGCGGTCTTGAG | 733 |
| CAAAAGTGCTGCCTCTCGAGGGGTTGTGGTTCTTAC | 754 |
| GACATGCTCTGGAAGCTTGAGGTTTTAACGTTAAGG | 743 |
| CAGTGGCATGAAGAGGTCAGAAACCACTCGTGGTGG | 749 |
| GATGAAAAGGAGACAAACTTGAGCTGCGGCGATGGG | 733 |
| TCCCGTTCCACCGCGGAGCCGGCTGTTTGCCGAGCC | 822 |
| CCGCTTACGGCCTTCGCCCGGCTTACCCGCGTCGCA | 1030 |
| GCACCACCGAAAGTAGGGCTCAACCACCGCTCATTT | 864 |
| ACCGTTCTGCGGCCGCCCTCGGGCACTTTCGGTCCG | 906 |
| GACTGTGGTGGAGAGAGAGGGGATGGGAGTTGTTTT | 1040 |
| TGCGCCGGGAGTGCATGAGCTGCCGATGTGGTGCTT | 697 |
| AGTCGGGAGCCATCTGCCCCAACTTGCGGTCTTCAC | 892 |

| Sequence | RUNX1 binding intensity |
| --- | --- |
| GCAGCTTAGGCAGGGGCGGCTGACCACACTGGTCTA | 769 |
| TACAGCCTCCTTCACCCCACTTGTGGCCTGGGTTAC | 857 |
| CCCTTCTTCATGGGTCCTCCAATTGCTACACCGCGC | 976 |
| TGACTAGAGACCACACACATATGCTGCATTCTCAGA | 804 |
| CTATGCGGGAGGCGGGGACAGCGCTCCCGGACCAGG | 775 |
| TAAGCAGTGACCTCAAATTAATATAGGAGGTCACTG | 671 |
| CCTCACAGGGACTGCCTTCCCCGCGGTTCAGGAATC | 941 |
| CTGAGACACCCTGATAATTCTGTGGGTTACCCCAAA | 810 |
| GCTGTAGGCAATGTTATTCGCCGCGGTCAGGACAGG | 771 |
| CAGCCGACTTTCGGGGTGGGGCTTGCTGCCGCAGAG | 760 |
| CTGCGCGGCTGGAAGTCGGCGGTTTCCCAGACGACG | 780 |
| GGTGGCAACATGCTGGGGAGGGGAACCCACAGGGGA | 851 |
| CTTACCTACAGTGCCGCTTGCTGTGGTTTCAGTTAC | 826 |
| ATCAGAGGCGCCACAGACCAGGGGATTTGCTGTGGA | 702 |
| CCGCGCCTCCTCGCGCTGTGCGCAGCCGCAGACCGA | 950 |
| TGTCTGGCCGCGGTAAGGGCGGCAAGGGTCTAGGTA | 799 |
| CCCCGCCGCGGTTCCCCCTGACCGGCTTTCAGCTGG | 991 |
| CAGTGACCTCCTATATTAATTTGAGGTCACTGCTTA | 867 |
| TGCTGAAGAGGAACACGTGACGGTTGTGGCCCTTCT | 634 |
| CGGCGCTGCGGGCACCGAGTAAAACGCGGAGGCGGG | 777 |
| GTCAGGCAGCTGTGGTCTTGCACGGAGGTCTTTAAT | 784 |
| TTGTGGTTTATACCCCATCTACTTTCAGCAAGGGTT | 904 |
| GTGTCTCCTCTTTGTTTTGGGGCTGTGGTTGCCACA | 1100 |
| GGCTTTTCAGGGATCCCTTTCGCCTCATCACCGCAG | 791 |
| ACGTCTGTTTACTGTGATTGAAACCGCAAGAAGAAG | 9630 |

| Sequence | RUNX1 binding intensity |
| --- | --- |
| GCAATCTTGACCACAACATGGAGACAGGCAATCAAA | 1540 |
| GCTGCTTCAGGCCGCTGGTCGCAGGGCTGCGGGACT | 636 |
| TCTCTTTCTGAACAGGCAATTGCCTGTGGTCCAACA | 971 |
| CCAGCACTCCCACAAGCCGCCGAAAGTCAACTCTCC | 1020 |
| CAGTCAATGTGGTAAGCTCATTGCCTGGAATGGCAA | 732 |
| CCCAGCCCTTCATGCAGGGTCGCTTGTGGGTCGGGT | 761 |
| ACGAGGTTTCGTGCAGGCTCCAGCCGAGACCACATC | 744 |
| TTTGGGGTAACCCACAGAATTATCAGGGTGTCTCAG | 761 |
| CGGGACCGCGACGGGCCAGGTGACCTGAAGAGGCCG | 719 |
| TAGGAGCGTCTGCGGCGCGGGCGGAGCCCGGGTTCG | 682 |
| GCCGCGGTGCCTGCCGGGACAGCGAGTTCAGCCGGG | 738 |
| CACCTCCTACCTCCCCCCGCTGATAACCACCAACCC | 2370 |
| TTACGCAGTGGTTGGAGAGCGTTGGCACGAACCCAA | 701 |
| CCGCGGTATCTCAGCAGCCGCTGGGCACCCGGAGGA | 1280 |
| GTGTGAGCCACCGCGCCAAGCCACACTGCCTTCTGC | 737 |
| TTTCTGTGGCCGGGGAAATTGAGGTCACTTGCTGTC | 754 |
| GGTCACGTGACCACGGGGACCGAAAGTGGCGCCCGG | 737 |
| GCAGTGCAGCAAGTGCTTTGTGTGGTACAATCCCAA | 782 |
| CACGGAGCCACTTTCGGCGGCTGTGGGCGCAAAACC | 769 |
| TGCTTGCGGTCCCTCGGCCCGTTTTGCTGCTAGTGG | 1090 |
| GACTGGACAACTTGCTGGTGGAAAACCGCGACTCTT | 1170 |
| CACCCAAGGCTATGCTTTTTTTTGGCAAGCCACATC | 904 |
| CCCGGACCCGCAGCTGCGCCTACAGACACTGCCTAG | 1050 |
| AGCGGTGTTTCAGGGTGTGAGGGCCCGCAGGAGCCG | 670 |
| TTCTTTCTTTGACCACAGATCACTGCCTCAGAAGCA | 3140 |

— the supplement of paper PMC10681739
